# Measurements reported in patent publication US4480030A, “Tripeptide derivatives and their application in assaying enzymes” (Pentapharm A.G., priority 1980, dated 1984).
# At least one peptide structure holds a part that was inferred or is arguable (an end, a ring closure or a residue). Square brackets hold non-standard residues; d marks the D form. Peptide text beside a SMILES is read from it. * marks the point of attachment. dAad = N[C@H](CCCC(=O)O)C(=O)O; pNA = O=[N+]([O-])c1ccc(N*)cc1; dNva = CCC[C@@H](N)C(=O)O; Abu = CC[C@H](N)C(=O)O; Cbz = O=C(OCc1ccccc1)*; Boc = CC(C)(C)OC(=O)*; OBn = c1ccc(CO*)cc1; Bn = c1ccc(C*)cc1; OtBu = CC(C)(C)O*; Ms = CS(=O)(=O)*; tBu = CC(C)(C)*
# Biological target: T1, bovine factor Xa (Bos taurus, UniProt P00743)
# T1 construct: purchased Diagnostic Reagents Ltd., Thame, Great Britain factor Xa preparation "Diagen"
# Assay: Activity of bovine factor Xa solution on chromogenic/fluorogenic substrate (split product H-R5 released)
# Type: biochemical
# Conditions: substrate concentration 2 × 10^-4; TRIS-imidazole buffer pH 8.4, ionic strength 0.3, 37° C.; factor Xa preparation "Diagen"; value calculated for 1 ml of factor Xa solution
# Protocol: The values of the factor Xa activity given in Table 4 were determined experimentally in the manner described hereinafter:
# For determining the activity of bovine factor Xa 1.8 ml of TRIS-imidazole buffer having a pH of 8.4 and an ionic strength of 0.3 was well mixed at 37° C. with 0.025 ml of an aqueous solution of factor Xa preparation "Diagen" (furnisher: Diagnostic Reagents Ltd., Thame, Great Britain) obtained by dissolving the contents of one vial in 0.5 ml of water. To the mixture there was added 0.2 ml of a 2×10^-3 M aqueous solution of a substrate of the invention. Thereafter, the quantity of split product H--R^5 in nanomoles released per minute was determined, and the corresponding value of 1 ml of factor Xa solution was calculated.
# T1 sequence (P00743 234-492 limits assumed): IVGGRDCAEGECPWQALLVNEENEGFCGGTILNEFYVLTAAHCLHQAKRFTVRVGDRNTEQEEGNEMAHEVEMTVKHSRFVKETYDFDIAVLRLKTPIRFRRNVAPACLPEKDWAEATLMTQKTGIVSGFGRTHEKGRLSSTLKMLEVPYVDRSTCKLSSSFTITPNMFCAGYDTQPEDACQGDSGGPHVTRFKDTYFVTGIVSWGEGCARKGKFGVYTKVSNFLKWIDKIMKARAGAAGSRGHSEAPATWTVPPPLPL
# T1 sequence (P00743 41-180 partner limits assumed): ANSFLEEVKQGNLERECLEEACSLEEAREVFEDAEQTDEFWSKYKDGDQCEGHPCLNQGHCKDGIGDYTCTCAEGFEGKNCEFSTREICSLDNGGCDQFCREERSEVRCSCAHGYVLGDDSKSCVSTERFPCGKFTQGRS
row,Structure (SMILES),"Activity of 1 ml of aqueous solution of bovine factor Xa, expressed in nanomoles of split product H--R^5 released per minute"
1,"CC(C)C[C@@H](NS(C)(=O)=O)C(=O)NCC(=O)N[C@@H](CCCNC(=N)N)C(=O)Nc1ccc([N+](=O)[O-])cc1 [Example 33, Methanesulfonyl-D-Leu--Gly--Arg--pNA.HBr] (Ms-[dL]-Gly-Arg-pNA)",1560 nanomoles of split product H--
2,"CCC[C@@H](NC(=O)OC(C)(C)C)C(=O)N[C@@H](CC)C(=O)N[C@@H](CCCNC(=N)N)C(=O)Nc1ccc([N+](=O)[O-])cc1 [Example 78, BOC--D-Nval--But--Arg--pNA.HBr] (Boc-[dNva]-[Abu]-Arg-pNA)",795 nanomoles of split product H--

# Biological target: T2, human factor Xa (Homo sapiens, UniProt P00742)
# T2 construct: from tissue
# Assay: Activity of factor Xa obtained by RVV activation of factor X in normal human blood plasma on substrate (split product H-R5 released)
# Type: biochemical
# Conditions: substrate concentration 2 × 10^-4; TRIS-imidazole buffer pH 8.4, ionic strength 0.3, 37° C.; citrated plasma activated with Russel viper venom 75 seconds; value calculated for 1 ml of citrated plasma
# T2 sequence (P00742 235-488 limits assumed): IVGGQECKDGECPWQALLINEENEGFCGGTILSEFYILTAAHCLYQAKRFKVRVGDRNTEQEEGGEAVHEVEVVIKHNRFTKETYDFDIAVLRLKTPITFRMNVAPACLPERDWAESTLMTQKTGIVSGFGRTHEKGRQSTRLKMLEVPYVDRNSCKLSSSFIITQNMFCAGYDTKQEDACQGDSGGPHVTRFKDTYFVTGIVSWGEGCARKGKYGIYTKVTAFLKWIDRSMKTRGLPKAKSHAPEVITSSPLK
# T2 sequence (P00742 41-179 partner limits assumed): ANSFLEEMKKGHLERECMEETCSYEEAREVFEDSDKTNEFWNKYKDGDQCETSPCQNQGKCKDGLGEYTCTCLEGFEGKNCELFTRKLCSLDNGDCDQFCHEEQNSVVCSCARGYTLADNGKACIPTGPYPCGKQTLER
row,Structure (SMILES),"Activity of factor Xa as obtained by activation of factor X in 1 ml of normal human blood plasma by means of RVV, expressed in nanomoles of split product H--R^5 released per minute"
1,"CC(C)C[C@@H](NS(C)(=O)=O)C(=O)NCC(=O)N[C@@H](CCCNC(=N)N)C(=O)Nc1ccc([N+](=O)[O-])cc1 [Example 33, Methanesulfonyl-D-Leu--Gly--Arg--pNA.HBr] (Ms-[dL]-Gly-Arg-pNA)",987 nanomoles of split product H--
2,"CCC[C@@H](NC(=O)OC(C)(C)C)C(=O)N[C@@H](CC)C(=O)N[C@@H](CCCNC(=N)N)C(=O)Nc1ccc([N+](=O)[O-])cc1 [Example 78, BOC--D-Nval--But--Arg--pNA.HBr] (Boc-[dNva]-[Abu]-Arg-pNA)",440 nanomoles of split product H--
3,"N=C(N)NCCC[C@H](NC(=O)CNC(=O)[C@@H](COCc1ccccc1)NC(=O)OCc1ccccc1)C(=O)Nc1ccc([N+](=O)[O-])cc1 [Example 90, Cbo--D-Ser(OBzl)--Gly--Arg--pNA.AcOH] (Cbz-[dS](Bn)-Gly-Arg-pNA)",225 nanomoles of split product H--
4,"C[C@H](OC(C)(C)C)[C@@H](NC(=O)OCc1ccccc1)C(=O)NCC(=O)N[C@@H](CCCNC(=N)N)C(=O)Nc1ccc([N+](=O)[O-])cc1 [Example 91, Cbo--D-Thr(OtBu)--Gly--Arg--pNA.AcOH] (Cbz-[dT](tBu)-Gly-Arg-pNA)",830 nanomoles of split product H--
5,"C[C@H](O)[C@@H](NC(=O)OCc1ccccc1)C(=O)NCC(=O)N[C@@H](CCCNC(=N)N)C(=O)Nc1ccc([N+](=O)[O-])cc1 [Example 92, Cbo--D-Thr--Gly--Arg--pNA.AcOH] (Cbz-[dT]-Gly-Arg-pNA)",415 nanomoles of split product H--
6,"CO[C@@H](C)[C@@H](NC(=O)OCc1ccccc1)C(=O)NCC(=O)N[C@@H](CCCNC(=N)N)C(=O)Nc1ccc([N+](=O)[O-])cc1 [Example 93, Cbo--D-Thr(OMe)--Gly--Arg--pNA.AcOH] (Cbz-[dT](Me)-Gly-Arg-pNA)",630 nanomoles of split product H--
7,"C[C@H](OCc1ccccc1)[C@@H](NC(=O)OCc1ccccc1)C(=O)NCC(=O)N[C@@H](CCCNC(=N)N)C(=O)Nc1ccc([N+](=O)[O-])cc1 [Example 94, Cbo--D-Thr(OBzl)--Gly--Arg--pNA.AcOH] (Cbz-[dT](Bn)-Gly-Arg-pNA)",845 nanomoles of split product H--
8,"N=C(N)NCCC[C@H](NC(=O)CNC(=O)[C@@H](CC(=O)O)NC(=O)OCc1ccccc1)C(=O)Nc1ccc([N+](=O)[O-])cc1 [Example 95, Cbo--D-Asp--Gly--Arg--pNA] (Cbz-[dD]-Gly-Arg-pNA)",465 nanomoles of split product H--
9,"COC(=O)CC[C@@H](NC(=O)OCc1ccccc1)C(=O)NCC(=O)N[C@@H](CCCNC(=N)N)C(=O)Nc1ccc([N+](=O)[O-])cc1 [Example 97, Cbo--D-Glu(γ-OMe)--Gly--Arg--pNA.AcOH] (Cbz-[dE](OMe)-Gly-Arg-pNA)",1420 nanomoles of split product H--
10,"COC(=O)C[C@@H](NC(=O)OCc1ccccc1)C(=O)NCC(=O)N[C@@H](CCCNC(=N)N)C(=O)Nc1ccc([N+](=O)[O-])cc1 [Example 98, Cbo--D-Asp(β-OMe)--Gly--Arg--pNA.AcOH] (Cbz-[dD](OMe)-Gly-Arg-pNA)",1080 nanomoles of split product H--
11,"N=C(N)NCCC[C@H](NC(=O)CNC(=O)[C@@H](CCC(=O)OCc1ccccc1)NC(=O)OCc1ccccc1)C(=O)Nc1ccc([N+](=O)[O-])cc1 [Example 99, Cbo--D-Glu(γ-OBzl)--Gly--Arg--pNA.AcOH] (Cbz-[dE](OBn)-Gly-Arg-pNA)",1515 nanomoles of split product H--
12,"N=C(N)NCCC[C@H](NC(=O)CNC(=O)[C@@H](CC(=O)OCc1ccccc1)NC(=O)OCc1ccccc1)C(=O)Nc1ccc([N+](=O)[O-])cc1 [Example 100, Cbo--D-Asp(β-OBzl)--Gly--Arg--pNA.AcOH] (Cbz-[dD](OBn)-Gly-Arg-pNA)",1055 nanomoles of split product H--
13,"CC(C)(C)OC(=O)CCC[C@@H](NC(=O)OCc1ccccc1)C(=O)NCC(=O)N[C@@H](CCCNC(=N)N)C(=O)Nc1ccc([N+](=O)[O-])cc1 [Example 101, Cbo--D-Aadi(δ-OtBu)-- Gly--Arg--pNA.AcOH] (Cbz-[dAad](OtBu)-Gly-Arg-pNA)",1290 nanomoles of split product H--
14,"N=C(N)NCCC[C@H](NC(=O)CNC(=O)[C@@H](CCCC(=O)OCc1ccccc1)NC(=O)OCc1ccccc1)C(=O)Nc1ccc([N+](=O)[O-])cc1 [Example 103, Cbo--D-Aadi(δ-OBzl)--Gly--Arg--pNA.AcOH] (Cbz-[dAad](OBn)-Gly-Arg-pNA)",1460 nanomoles of split product H--
